Laboratory results taken from publication PMC4336329 (PLoS ONE, 2015).
Screen size: about 310,000 compounds; about 14,000 (4.5%) showed an effect of 50% or more. Effects have a minus sign here. This is one part of the list.

The molecules below were run against human ether-à-go-go-related gene (hERG) potassium channel (human, UniProt Q12809) (assay: primary screen, population patch clamp on CHO cells stably expressing hERG).
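Further: peak tail current of the secondary pulse compared with the same well before compound.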

Sequence of human ether-à-go-go-related gene (hERG) potassium channel (Q12809 whole entry, looked up): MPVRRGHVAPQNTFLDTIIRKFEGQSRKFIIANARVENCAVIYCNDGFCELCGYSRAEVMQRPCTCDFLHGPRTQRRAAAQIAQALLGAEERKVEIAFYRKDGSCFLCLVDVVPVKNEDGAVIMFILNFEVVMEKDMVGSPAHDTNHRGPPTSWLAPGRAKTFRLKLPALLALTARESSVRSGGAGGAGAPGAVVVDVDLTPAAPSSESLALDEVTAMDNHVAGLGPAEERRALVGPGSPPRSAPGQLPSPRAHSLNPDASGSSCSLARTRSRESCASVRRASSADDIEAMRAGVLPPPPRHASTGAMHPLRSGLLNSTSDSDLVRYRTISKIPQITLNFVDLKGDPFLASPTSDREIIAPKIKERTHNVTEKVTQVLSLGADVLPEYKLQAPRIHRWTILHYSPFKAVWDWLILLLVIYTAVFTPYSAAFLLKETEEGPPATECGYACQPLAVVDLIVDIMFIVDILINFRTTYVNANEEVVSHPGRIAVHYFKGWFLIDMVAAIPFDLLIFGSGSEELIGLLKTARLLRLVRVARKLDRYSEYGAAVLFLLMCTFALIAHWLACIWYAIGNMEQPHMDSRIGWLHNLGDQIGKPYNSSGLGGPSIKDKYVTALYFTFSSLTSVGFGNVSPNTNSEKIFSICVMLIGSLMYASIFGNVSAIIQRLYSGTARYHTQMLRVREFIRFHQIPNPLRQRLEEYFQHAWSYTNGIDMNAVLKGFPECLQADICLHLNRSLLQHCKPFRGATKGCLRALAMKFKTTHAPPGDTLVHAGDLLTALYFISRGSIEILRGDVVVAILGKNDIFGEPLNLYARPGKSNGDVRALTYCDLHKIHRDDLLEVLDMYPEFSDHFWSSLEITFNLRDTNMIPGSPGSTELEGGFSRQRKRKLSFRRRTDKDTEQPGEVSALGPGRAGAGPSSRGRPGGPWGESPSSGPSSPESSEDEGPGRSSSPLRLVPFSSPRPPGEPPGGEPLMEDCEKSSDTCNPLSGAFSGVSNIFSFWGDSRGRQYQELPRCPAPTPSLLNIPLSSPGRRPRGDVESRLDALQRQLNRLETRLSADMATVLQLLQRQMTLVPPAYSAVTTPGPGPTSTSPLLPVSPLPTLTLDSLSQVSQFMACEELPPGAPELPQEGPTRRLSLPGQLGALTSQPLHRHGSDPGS

Compound	hERG current change (%, negative = inhibition) at 10uM
CCN(CC)c1ccc(NC(=O)COc2ccccc2C#N)cc1S(=O)(=O)Nc1ccccc1OC	3.96%
CN(CCc1ccccn1)C(=O)CCC1CCCN(C(=O)c2ccsc2)C1 (stereo not shown)	-1.56%
C/C(CC(=O)Nc1ccc(N(C)C)cc1)=N\NC(=O)c1cnccn1	20%
CCOC(=O)c1c(-c2ccccc2)nc2c(C)cccn12	-12.5%
COc1ccc(-c2csc(NC(=O)CN3C(=O)C4CC=CCC4C3=O)n2)cc1OC (stereo not shown)	10.5%
CCOc1ccc(S(=O)(=O)N(C)C)cc1-c1nc2c(C(C)(C)C)nn(C)c2c(=O)[nH]1	16%
COC(=O)c1ccc(-c2sc3nc(N4CCOCC4)c4c(c3c2N)CCCC4)o1	20.4%
CCC(C)(C)C(=O)Nc1nnc(CCc2ccccc2)s1	-41.1%
Cn1cccc1C(=O)OCC(=O)N1c2ccccc2NC(=O)C1(C)C	7.42%
CCOc1ccc(CCNC(=O)Cc2ccc(NC3=NC4CS(=O)(=O)CC4S3)cc2)cc1 (stereo not shown)	24.9%
CCOc1ccc(-n2cc(C(=O)Nc3cccc(OC)c3)c3cc(OC)c(OC)cc3c2=O)cc1	3.33%
COc1cccc(NC(=S)NCCc2ccccn2)c1	7.98%
Cc1cccc(N2CCN(C(=O)CCCSc3nc4ccccc4[nH]3)CC2)c1C	-17.4%
CCCCNC(=O)N(O)C1N(/N=C/c2ccco2)C(=S)SC1(C)C (stereo not shown)	10.3%
O=C(c1cc2ncc(Br)cn2n1)N1CCN(C(=O)c2ccco2)CC1	-12.9%
O=c1cc(Cc2nnc(SCc3ccccc3)n2-c2ccc(Cl)cc2)[nH]c(=O)[nH]1	0.593%
Cc1nc(Nc2ccc(S(N)(=O)=O)cc2)oc1C	3.37%
CC(C)C(OC(=O)c1ccco1)C(=O)NC1CCCCC1 (stereo not shown)	-3.32%
COc1ccc(NS(=O)(=O)c2cccc(NC(=O)CCC(=O)c3cccs3)c2)cc1	-47.3%
CCCC(=O)NC(c1ccccc1)c1c(O)ccc2ccccc12 (stereo not shown)	13.8%
Cc1ccc(NC(=O)C2CCN(c3cnccn3)CC2)cc1C	38.3%
O=C(NCc1ccc(C(F)(F)F)cc1)c1ccc2c(c1)S(=O)(=O)c1ccccc1C2=O	-4.03%

Compound	hERG current change (%, negative = inhibition) at 10uM
CNC(=S)N1N=C(c2ccc(C)cc2)CC1c1ccc(Cl)cc1 (stereo not shown)	-0.424%
O=C(NCCNC1CCC(c2ccccc2)CC1)c1cccs1 (stereo not shown)	-35.2%
CCc1nc(N2CCCC(C)C2)c2oc3ccccc3c2n1.Cl (stereo not shown)	6.78%
CCOc1ccc(C(=O)C2CCN(CC(=O)Nc3nccs3)CC2)cc1	-68.3%
COc1ccc(-c2nc(N)n(C(=O)c3ccco3)n2)cc1	1.08%
Cn1c(CCc2ccc(N)cc2)nc2ccccc21	-8.55%
O=C(Nc1ccccc1)c1ccc(N2CCN(c3ccccc3)CC2)c(S(=O)(=O)N2CCOCC2)c1	-9.82%
COc1ccccc1NC(=O)C/C(C)=N/NC(=O)COc1c(Br)cc(Br)cc1OC	-22.2%
Cc1ccccc1CN1CCN(C(C)C(=O)NCc2ccccc2)CC1 (stereo not shown)	-13.6%
Cc1cc(O)c(N)c(C)c1Cl.Cl	-4.7%
Cc1ccc(C(OCC(O)CNC(CO)C(O)c2ccc([N+](=O)[O-])cc2)c2ccccc2)cc1 (stereo not shown)	-22.4%
COc1cccc(N(C(=O)Cn2nnc(-c3ccc(C)o3)n2)C(C(=O)NC(C)(C)C)c2cccs2)c1 (stereo not shown)	-1.02%
C/C(=N\NC(=O)c1ccccc1C)c1cccc([N+](=O)[O-])c1	3%
O=C(NCc1ccco1)C1Cc2ccccc2CN1C(=O)c1ccco1 (stereo not shown)	-6.44%
O=C(CCCl)N1CCN(c2nc(-c3ccccc3)cs2)CC1	-6.46%
Cc1nc2ccsc2c(=O)n1-c1ccc(Cl)cc1	4.99%
CN(CC(=O)NCc1ccco1)S(=O)(=O)c1ccc2c(c1)n(C)c(=O)c(=O)n2C	0.277%
CC(=O)c1ccc(S(=O)(=O)N2CCCC2)cc1	0.365%
CCS(=O)(=O)N1CCN(C2Cc3ccccc3C2)CC1.O=C(O)C(=O)O	3.3%
O=C(NCCCN1CCCC1=O)c1cccc(S(=O)(=O)N2CCN(c3ccccc3)CC2)c1	-33.3%
COc1cc2c(cc1OC)-c1cc(NC3CCCC3)nc(=O)n1CC2	5.71%
